Experimental data published in the antibiotic and cytotoxicity screens of Wong et al. (2023).
Some of the results follow.

Key:
[1] = test system: HSkMC (human skeletal muscle cells); assay: cytotoxicity call (relative viability < 0.9); settings: 10 µM
[2] = test system: HepG2; assay: cytotoxicity call (relative viability < 0.9); settings: 10 µM
[3] = test system: S. aureus RN4220; assay: growth inhibition call (relative growth <= 0.2); settings: 50 µM

| Structure (SMILES) | cytotoxicity call [1] | cytotoxicity call [2] | growth inhibition call [3] |
| --- | --- | --- | --- |
| CC(C)NC(=O)Nc1cccc2c1O[C@H](CN(C)Cc1ccc(C(=O)O)cc1)[C@H](C)CN([C@@H](C)CO)C2=O | inactive | inactive | inactive |
| Cc1cccc(/C=C2\CS/C(=C\c3cccc(C)c3)C2=O)c1 | inactive | inactive | inactive |
| C=C1O[C@@](CO)(n2cnc3c(N)ncnc32)[C@H](O)[C@@H]1O | inactive | inactive | inactive |
| C[C@H](CO)N1C[C@H](C)[C@H](CN(C)S(=O)(=O)c2ccc(Cl)cc2)Oc2c(NC(=O)c3ccc(-c4nccs4)cc3)cccc2C1=O | inactive | active | inactive |
| COc1ccc(NC(=O)Nc2ccc3c(c2)C(=O)N([C@H](C)CO)C[C@@H](C)[C@H](CN(C)S(=O)(=O)c2ccc(C)cc2)OCCCC[C@H](C)O3)cc1 | inactive | active | inactive |
| COc1ccc(CCNC(=O)[C@@]2(Sc3ccc(C)cc3)CC(=O)N(Cc3cc(C(F)(F)F)cc(C(F)(F)F)c3)[C@@H]2c2ccc(CO)cc2I)cc1 | inactive | inactive | inactive |
| Cc1noc(C)c1S(=O)(=O)Nc1ccc2c(c1)CC(=O)N([C@@H](C)CO)C[C@H](C)[C@@H](CN(C)Cc1ccc(-c3ccccc3)cc1)O2 | inactive | inactive | inactive |
| CO[C@@H]1CN(C)C(=O)c2cc(NC(=O)C3CCOCC3)ccc2OC[C@@H](C)N(Cc2cccnc2)C[C@@H]1C | inactive | inactive | inactive |
| Cn1c[n+](NC(=O)c2ccc(C(=O)ON3C(=O)CCC3=O)cc2)cn1 | inactive | inactive | inactive |
| COc1cccc(-c2ccc3c(c2)O[C@H](CN(C)Cc2cncnc2)[C@@H](C)CN([C@H](C)CO)S3(=O)=O)c1 | inactive | inactive | inactive |
| CC(C)NC(=O)Nc1ccc2c(c1)C(=O)N([C@@H](C)CO)C[C@@H](C)[C@@H](CN(C)C(=O)Nc1ccc(C(F)(F)F)cc1)OCCCC[C@H](C)O2 | inactive | inactive | inactive |
| C[C@@H]1CN([C@H](C)CO)S(=O)(=O)c2ccc(C#Cc3ccccc3F)cc2O[C@H]1CN(C)C(=O)c1ccc2c(c1)OCO2 | inactive | inactive | inactive |
| C[C@@H]1CN([C@@H](C)CO)C(=O)c2cccc(NC(=O)c3ccc(-c4nccs4)cc3)c2O[C@@H]1CN(C)C(=O)Nc1ccc2c(c1)OCO2 | inactive | inactive | inactive |
| C[C@@H]1CN([C@@H](C)CO)C(=O)c2cc(NC(=O)CCC(F)(F)F)ccc2O[C@@H](C)CCCCO[C@H]1CN(C)C(=O)Cc1ccccc1 | inactive | inactive | inactive |
| C[C@@H]1CCCCO[C@@H](CN(C)S(=O)(=O)c2ccc(F)cc2)[C@@H](C)CN([C@H](C)CO)C(=O)c2cc(NC(=O)Nc3ccc(C(F)(F)F)cc3)ccc2O1 | inactive | inactive | inactive |
| C[C@@H]1CCCCO[C@H](CN(C)C(=O)C2CCCCC2)[C@@H](C)CN([C@H](C)CO)C(=O)c2cc(NC(=O)c3ccncc3)ccc2O1 | inactive | inactive | inactive |
| Cc1noc(C)c1NC(=O)Nc1ccc2c(c1)C(=O)N([C@@H](C)CO)C[C@@H](C)[C@@H](CN(C)Cc1ccc(C(F)(F)F)cc1)O2 | inactive | inactive | inactive |
| C[C@H]1CN([C@@H](C)CO)C(=O)Cc2cc(NC(=O)Cn3cnnn3)ccc2O[C@H]1CN(C)S(=O)(=O)c1ccc(F)cc1 | inactive | inactive | inactive |
| COc1ccc(S(=O)(=O)N(C)C[C@@H]2Oc3ccc(NC(=O)c4ccncc4)cc3C(=O)N([C@H](C)CO)C[C@H]2C)cc1 | inactive | inactive | inactive |
| COc1ccc(NC(=O)Nc2ccc3c(c2)CC(=O)N([C@H](C)CO)C[C@H](C)[C@@H](CN(C)C(=O)Nc2ccc(C(F)(F)F)cc2)O3)cc1 | inactive | inactive | inactive |
| COc1ccc(CN(C)C[C@@H]2OCCCC[C@@H](C)Oc3ccc(NC(=O)NC4CCCCC4)cc3C(=O)N([C@@H](C)CO)C[C@@H]2C)cc1 | inactive | inactive | inactive |
| C[C@@H]1CN([C@H](C)CO)C(=O)Cc2cc(NC(=O)CCC(F)(F)F)ccc2O[C@@H]1CN(C)S(=O)(=O)c1cn(C)cn1 | inactive | inactive | inactive |
| Cc1noc(C)c1NC(=O)Nc1ccc2c(c1)C(=O)N([C@@H](C)CO)C[C@H](C)[C@H](CN(C)Cc1ccc(C(F)(F)F)cc1)OCCCC[C@@H](C)O2 | inactive | inactive | inactive |
